Measurements reported in the antibiotic and cytotoxicity screens of Wong et al. (2023).
Some of the results follow.

The compounds below were run on S. aureus RN4220 (assay: growth inhibition call (relative growth <= 0.2)). Conditions: 50 µM.

Growth inhibition call, inactive:
COc1ccc2c3c([nH]c2c1)[C@@H](CO)N(C[C@]13CN(Cc2ccccc2)C1)S(=O)(=O)c1cn(cn1)C, Cc1noc(C)c1S(=O)(=O)Nc1ccc2c(c1)C(=O)N([C@@H](C)CO)C[C@H](C)[C@@H](CN(C)C(=O)Nc1ccc(C(F)(F)F)cc1)OCCCC[C@@H](C)O2, COCC(=O)Nc1ccc2c(c1)C(=O)N(C)[C@@H]1CC[C@@H](CC(=O)NC3Cc4ccccc4C3)O[C@@H]1CO2, C[C@@H]1CCCCO[C@H](CN(C)Cc2ccc(C(F)(F)F)cc2)[C@H](C)CN([C@H](C)CO)C(=O)c2cc(NS(=O)(=O)c3ccc(Cl)cc3)ccc2O1, C[C@H](CO)N1C[C@H](C)[C@H](CN(C)S(C)(=O)=O)OCCCC[C@H](C)Oc2ccc(N(C)C)cc2C1=O, C[C@@H]1CN([C@@H](C)CO)S(=O)(=O)c2ccc(Br)cc2O[C@@H]1CN(C)Cc1ccc(C(=O)O)cc1, COc1ccc(S(=O)(=O)Nc2ccc3c(c2)C(=O)N([C@H](C)CO)C[C@@H](C)[C@H](CN(C)Cc2ccc4c(c2)OCO4)OCCCC[C@@H](C)O3)cc1, COc1ccc(-c2cnc3c(c2)C(=O)N([C@@H](C)CO)C[C@@H](C)[C@H](CN(C)C(=O)Cc2ccncc2)O3)cc1
